Here are results for 24 sequences from the supplement of paper PMC11417369.

The list shows a part of the results.

The assay relates to PfAP2-HC AP2 domain (GST-tagged). As to the kind of experiment: gcPBM binding intensity (ln(normalized median fluorescence intensity)); higher = stronger DNA binding. In a few lines:
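GST-tagged P. falciparum DNA-binding domains produced in E. coli were incubated for 1 h on an Agilent 4 × 180k array of primer-extended double-stranded 36-bp intergenic genomic probes with negative controls. Binding intensity is the highest Masliner-normalised natural-log median intensity across replicate spots of either probe orientation, with bound protein detected by Alexa488 anti-GST antibody at 488 nm.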
Regarding “TATTAAAAGGTGAGTACACACATATCTGAGTATATA [CACACA_site5192]”, the “gcPBM binding intensity (ln)” value is 9.85. As for “TTGTGCTAAACAAAAAAAAATATATATAAAAAAATA [XGTACX_negctrl_site388]”, the “gcPBM binding intensity (ln)” value was 9.42. The figure for “ATATGTATATAATAAGAACACACATATATTTAATTT [CACACA_site8961]” is 9.96. Consider “ATAAAAATATATGAAACACACAGTTTCTATAAGAAA [CACACA_site4156]”, for which the “gcPBM binding intensity (ln)” value stood at 9.85. Take “GTTATTAAATAATTCACACACATATATAAATAAATA [CACACA_site7129]”: the “gcPBM binding intensity (ln)” value came out at 9.93. Regarding “ATATCTCAACATATCACACATATATATATATAATAT [CACACA_site5018]”, the “gcPBM binding intensity (ln)” value was found to be 9.9. “AATAAATATAAATAAATAAATATATATATATATTTG [CACACA_negctrl_site1486]”: the “gcPBM binding intensity (ln)” value turned out to be 9.56. For the sequence “CATCCACATAGATGTACACACATATATATATATATA [CACACA_site5616]”, the “gcPBM binding intensity (ln)” value amounted to 10.1. Turning to “ATATGTATATTTTTGATGTGCTTTTATTTGGTTATT [CACACA_negctrl_site626]”, the “gcPBM binding intensity (ln)” value was determined as 9.91. The figure for “CTTCATAAAAATTGCACACATATAATAATGTACATA [CACACA_site2212]” is 9.71.

Turning to “AAAAAAAATACATACACACACACACGCACATATATA [CACACA_site7645]”, the “gcPBM binding intensity (ln)” value was 11.7. With “ATTTTTTTATAATCAACCCATTTCCTACATTTTTAT [CACACA_negctrl_site1237]”, the “gcPBM binding intensity (ln)” value was 9.85.

For “AAAATTAATTTATTTACACACAATATTAAAATATTT [CACACA_site7512]”, the “gcPBM binding intensity (ln)” value turned out to be 9.59. “TTTTATACATATTTTACACACTAAAATATACAGATA [CACACA_site4333]”: the “gcPBM binding intensity (ln)” value stood at 9.56. In the case of “TTACATATTCATAAAAGTACATAATTATAAAAGGTA [XGTACX_site906]”, the “gcPBM binding intensity (ln)” value was 9.66. The same measure for “GTATATATGTTTTATACACACATTAAAGGAAATATA [CACACA_site984]”: 9.83. As to “TATAATATATAAAAATGTACACATAAATATAAGTAG [XGTACX_site665]”, the “gcPBM binding intensity (ln)” value is 9.93. Turning to “ACATGCAAGAAGAAATGTACTTAACATCTATATAGA [XGTACX_site7338]”, the “gcPBM binding intensity (ln)” value is 9.52. The figure for “ACTAAATAAATAAATATAATATATAAATATGTATGT [TGCATGCA_negctrl_site583]” is 9.76; for “GCCATAAAGATATATACACACATAAAAAAAAGTTAT [CACACA_site6674]” it is 9.9. Take “AAAAAAAAAATTAAATGTACATATATAATATATATA [XGTACX_site7245]”: the “gcPBM binding intensity (ln)” value was 9.63.

Regarding “TTAACAAAGAAACACACACACACACCCAAAAAAAAA [CACACA_site516]”, the “gcPBM binding intensity (ln)” value is 10.6. The same measure for “ATTATTATAGATAAAACACACAATTTTGTTTTCACA [CACACA_site7792]”: 9.64. Turning to “AAACAATTATTATATTGTACATATATTACATTATTA [XGTACX_site1089]”, the “gcPBM binding intensity (ln)” value turned out to be 9.54.
